# Assay results from PubChem BioAssay AID686978 (National Center for Advancing Translational Sciences (NCATS), 2013).
# About 64,000 (15%) of roughly 420,000 compounds were called active. This list was built around the results that the source calls inconclusive (neither active nor inactive); the mix of calls is not that of the screen. Calls come from the whole dose curve; as a rule, active = well fitted inhibition curve with a large enough effect; inconclusive = small, poorly fitted or top-dose-only effect; inactive = flat fitted curve, though single readings scatter. No potency is given beside an inconclusive call; the fits are too rough.
# Test: qHTS for Inhibitors of human tyrosyl-DNA phosphodiesterase 1 (TDP1): qHTS in cells in absence of CPT; note: nearly all actives have a fitted effect of over 55% in size
# Conditions: DT40 Tdp1-/- hTDP1 cells, no CPT, ATP luminescence, 48 h; activity change, negative = growth inhibition: at 46.2 µM (top of the series) unless noted
# How it was run: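 Seeded 400 DT40-hTDP1 cells/well (vehicle DMSO, no 20 nM CPT); pinned compounds; ≥48 hr at 37 °C; CellTiter-Glo luminescence as viability measure.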
# % is set by controls: 0 for no effect and ±100 for the full control effect; potency is the fitted concentration of half-maximal effect; tags give direction and shape of the fitted curve.
Compound,Potency,"activity change, negative = growth inhibition"
O=C(OCCN=C1NS(=O)(=O)c2ccccc21)c1ccccc1F,inactive,
Cc1ccccc1NC(=O)Cn1c(=O)n(CC2CCC(C(=O)NCCc3ccccc3)CC2)c(=O)c2ccccc21 (stereo unspecified),"inconclusive [inhibitor, single point]",
Fc1ccc(CSc2nnc(-c3ccncc3)o2)cc1,"inconclusive [inhibitor, partial curve]",
COCc1cccc(-c2csc(C(O)c3ccc(F)cc3)n2)c1 (stereo unspecified),"inconclusive [inhibitor, single point]",
CCCCC(CC)CNC(=O)CN1C(=O)NC2(CCc3ccccc32)C1=O (stereo unspecified),"inconclusive [inhibitor, single point]",
O=C1C2C(c3ccccc3)C=CC(c3ccccc3)C2C(=O)N1c1cccnc1 (stereo unspecified),inactive,
Cc1cc(NC(=O)C2CC(=O)N(c3cccc(Cl)c3)C2)no1 (stereo unspecified),inactive,
O=[N+]([O-])c1ccc(-c2cn3c(n2)SCC3)cc1,"inconclusive [inhibitor, single point]",
COc1ccccc1NS(=O)(=O)c1ccc2oc(SC(C)C(=O)N3CCNC3=O)nc2c1 (stereo unspecified),"inconclusive [inhibitor, partial curve]",
O=C(Nc1ccccc1N1CCOCC1)C1CCCCN1S(=O)(=O)c1ccccc1 (stereo unspecified),"inconclusive [inhibitor, single point]",
Cc1cccc(C(=O)Nc2cc(=O)n(C)c(=O)n2C)c1,inactive,
COc1ccc(NC(=O)CSc2ncnc3c2nnn3-c2ccc(F)cc2)c(OC)c1,"inconclusive [inhibitor, partial curve, poor fit]",
CCN(CC(=O)NC1CCCC1)S(=O)(=O)c1ccc(Br)cc1,"inconclusive [inhibitor, single point]",
Cc1ccc(C(=O)Nc2cc3c(cc2N2CCCC2)n(C)c(=O)c(=O)n3C)cc1,active: 20.6 µM,
COc1ccc(OC)c(S(=O)(=O)CC(=O)c2cc3ccc(OC)cc3oc2=O)c1,inactive,
Cc1ccc(NC(=O)c2nc[nH]c2C(=O)N(C)CCO)cc1,inactive,
CCn1ccnc1CN(C)Cc1cn[nH]c1-c1ccc(F)cc1F,"inconclusive [inhibitor, partial curve]",
Clc1ccc(OCc2nnc(SCc3nc4ccccc4[nH]3)n2Cc2ccco2)cc1,active: 20.6 µM,
CCOC(=O)c1cccc(NC(=O)CCc2nnc3ccc(N4CCCCC4)nn23)c1,inactive,
C=CCn1c(Cc2ccccc2)nc2c(cnn2-c2ccccc2)c1=O,active: 23.1 µM,
COc1cc(-c2nnc(SCc3c(F)cccc3Cl)o2)cc(OC)c1OC,active: 25.9 µM,
O=c1c2c(-c3cccs3)csc2ncn1-c1ccccc1,"inconclusive [inhibitor, single point]",
Cc1ccc(C)c(NC(=S)NNC(=O)c2ccc(Br)o2)c1,"inconclusive [inhibitor, single point]",
CCOc1ccc(-c2cc3c(=O)n(CC(=O)NCc4ccc(Cl)cc4)ccn3n2)cc1,inactive,
O=C(O)CCn1cnc2onc(-c3cc(F)cc(F)c3)c2c1=O,inactive,
CCN(CC)S(=O)(=O)c1ccc2oc(SCc3ccc(F)cc3)nc2c1,active: 20.6 µM,

Compound,Potency,"activity change, negative = growth inhibition"
COc1ccc(NC(=O)C(=O)NCC(c2ccco2)N2CCc3ccccc3C2)cc1OC (stereo unspecified),"inconclusive [inhibitor, single point]",
COc1cc2c(cc1OC)C(c1c(Cl)cccc1Cl)NC(=O)C2 (stereo unspecified),"inconclusive [inhibitor, single point]",
CCOC(=O)C1CCN(CC(=O)Nc2ccc(OC)c(Cl)c2)CC1,inactive,
CCNC(=S)N1CCN(c2nc(CC)nc3sc4c(c23)CCCC4)CC1,"inconclusive [inhibitor, single point]",
Cc1ccc(S(=O)(=O)Nc2ccccc2N2CCCCC2)cc1,active: 16.4 µM,
O=C(CCl)NCCN1C(=O)S/C(=C\c2cccnc2)C1=O,"inconclusive [inhibitor, single point]",
CC(OC(=O)c1cccc(-n2cnnn2)c1)C(=O)Nc1ccc(F)cc1Cl (stereo unspecified),"inconclusive [inhibitor, single point]",
Cc1occc1C(=O)N/N=C/c1cnn(C)c1C,inactive,
CCN1CCN(C(=O)NC2CC(=O)N(c3ccc(OC)cc3)C2)CC1 (stereo unspecified),inactive,
O=C(COC(=O)c1cncc(Br)c1)Nc1ccc(S(=O)(=O)N2CCOCC2)cc1,inactive,
CCSC1=N/C(=C/c2ccsc2)C(=O)N1c1ccccc1,"inconclusive [inhibitor, single point]",
COc1cccc2cc(C(=O)N(Cc3cccs3)CC3CCCO3)c(=O)oc12 (stereo unspecified),inactive,
Cc1ccc(NC(=S)N2CCC(c3nc4ccccc4s3)CC2)cc1C,"inconclusive [inhibitor, single point]",
CCC(Sc1nc2n[nH]c(C)c2c(=N)n1-c1cccc(Cl)c1C)C(=O)N(CC)CC (stereo unspecified),"inconclusive [inhibitor, single point]",
CC(C)(C)NC(=O)[C@H]1CC[C@H]2[C@@H]3CC[C@H]4NC(=O)C=C[C@]4(C)[C@H]3CC[C@]12C,"inconclusive [inhibitor, partial curve]",
COc1cccc(NC(=O)C2CCCN(S(=O)(=O)c3ccc4[nH]c(=O)ccc4c3)C2)c1 (stereo unspecified),"inconclusive [inhibitor, single point]",
C/C=C/c1ccc(OCC(=O)NNC(=O)CN(C)S(=O)(=O)c2ccc(C)cc2)c(OC)c1,"inconclusive [inhibitor, single point]",
COc1ccc(Br)cc1S(=O)(=O)Nc1ncn[nH]1,inactive,
CCOc1ccc(OCC)c(NS(=O)(=O)c2c(C(=O)N3CCC(C)CC3)c(C)n(C)c2C)c1,"inconclusive [inhibitor, single point]",
CN(C[C@H](Cc1ccccc1)N(C[C@H](Cc1ccccc1)N(CCc1cc(C(F)(F)F)cc(C(F)(F)F)c1)N=O)N=O)N=O,active: 20.6 µM,
COc1cc(NC(=O)c2ccc(-c3cccc(F)c3)o2)ccc1NC(=O)c1ccccc1Cl,active: 18.4 µM,
COc1ccc(NC(=O)CN(c2ccc(C)cc2)S(=O)(=O)c2cccc3nonc23)cc1OC,active: 16.4 µM,
CC(C)Nc1ncnc2c1cnn2-c1ccc(Cl)cc1,"inconclusive [inhibitor, single point]",
COc1ccc(N2CC(NC(=O)c3ccc4c(c3)OCO4)CC2=O)cc1 (stereo unspecified),inactive,
NCCNc1ccc([N+](=O)[O-])c(NC2CC2)c1,,inconclusive: -31.5% [inhibitor]
CC1CCc2nc3ncn(Cc4ccccc4F)c(=O)c3cc2C1 (stereo unspecified),"inconclusive [inhibitor, single point]",

Compound,Potency,"activity change, negative = growth inhibition"
Cc1cc(=O)oc2c(C)c(OCC(=O)NC3CCN(Cc4ccccc4)CC3)ccc12,,inconclusive: -30.2% [inhibitor]
O=C(/C=C/c1ccc(-c2ccccc2[N+](=O)[O-])o1)c1ccccc1,active: 23.1 µM,
CCOC(=O)c1cc(N2CCCCC2)nc2ccccc12,"inconclusive [inhibitor, single point]",
O=C(N/N=C/c1ccc(O)c(O)c1)N/N=C/c1ccc(O)c(O)c1,"inconclusive [inhibitor, single point]",
Cc1ccc(-n2c(SCC(=O)O)nc3sc4c(c3c2=O)CCCC4)cc1,inactive,
CC(C)Oc1ccc(C(=O)OCC(=O)c2ccc[nH]2)cc1,inactive,
CCN(CC)S(=O)(=O)c1ccc(C(=O)NCCSc2c[nH]c3ccccc23)cc1,"inconclusive [inhibitor, single point]",
CN(CC(=O)Nc1ccc(Cl)c(C(F)(F)F)c1)C(=O)Cc1ccsc1,active: 16.4 µM,
C=CCC[C@H](Cc1ccc(F)cc1)C(=O)OC[C@@H](NC(=O)[C@@H](CC=C)CC(=O)N[C@@H](CO)Cc1ccccc1)C(C)(C)C,active: 20.6 µM,
COc1cc2c(cc1OC)CN(C1CCC(C(C)(C)C)CC1)CC2 (stereo unspecified),active: 20.6 µM,
CCCc1ccc(-c2cc(C(=O)NC3=NCCS3)c3ccccc3n2)cc1,"inconclusive [inhibitor, single point]",
O=S(=O)(c1ccc(-c2csc(-c3cccnc3)n2)cc1)N1CCCC1,"inconclusive [inhibitor, single point]",
Cc1cc(NS(=O)(=O)c2ccc(NC(=O)C(C)Oc3cc(C)c(Cl)c(C)c3)cc2)no1 (stereo unspecified),inactive,
COc1ccc2nc(Nc3ccccc3OC)sc2c1,active: 20.6 µM,
COc1ccc(N(C(C)=O)S(=O)(=O)c2cccs2)cc1,,inconclusive: -30.9% [inhibitor]
CCCC(=O)Nc1ccc2oc(=O)ccc2c1,inactive,
CCC1C(=O)C[C@H]2CCN3C(=O)CCCC1C23 (stereo partly specified),inactive,
Oc1ccc(C=Nc2cccc3ccccc23)c(O)c1,inactive,
COc1cccc(-c2cncnc2NCCc2c[nH]c3ccc(OC)cc23)c1,active: 20.6 µM,
COc1ccc2[nH]c(=O)c(CN(CCc3ccccc3)Cc3nnnn3CC3CCCO3)cc2c1 (stereo unspecified),active: 29.1 µM,
O=C(CCCCCn1c(=S)[nH]c2ccc(N3CCOCC3)cc2c1=O)NCc1cccc(Cl)c1,inactive,
CCOC(=O)c1cnc(SC2CC(=O)N(c3ccc(OC)c(OC)c3)C2=O)nc1N (stereo unspecified),"inconclusive [inhibitor, single point]",
Cn1c(-c2ccc(Cl)cc2)cnc1N,inactive,
COc1ccc(Cn2c(=N)c(C(=O)NC3CCCCC3)cc3c(=O)n4ccccc4nc32)cc1,active: 8.2 µM,
